PubChem BioAssay (Tox21)
The shares of active, inactive and inconclusive entries below differ from those in the screen. Calls come from the whole dose curve; as a rule, active = well fitted activation curve with a large enough effect in the signal ratio in the repeat runs (not every such curve was filed as active); inconclusive = weak or mixed curves, or effect the other way; inactive = no such curve, though single readings can be large or run the other way; the % refers to the signal ratio. Potencies of inconclusive entries are left out as doubtful fits.

assay: qHTS assay for small molecule agonists of the antioxidant response element (ARE) signaling pathway (AID 743202); details: HepG2 ARE-bla reporter, beta-lactamase FRET, 16 h; series mostly up to 73.3 µM
In short: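 Following a 16 h, 37 C exposure of reporter HepG2 cells (ARE-driven beta-lactamase, 2,000 cells/well) to compounds, FRET substrate was applied for 2 h at room temperature and fluorescence intensity recorded.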
Potency is the fitted concentration of half-maximal effect; tags give direction and shape of the fitted curve.

SMILES | Potency
CCC(C)(C)c1cc(O)c(C(C)(C)CC)cc1O | inconclusive [rising, full curve]
COc1cc(-c2nc(NC(=O)c3cc4cc(C)cc(C)c4n3CC(=O)O)sc2CCC2CCCCC2)c(OC)cc1Cl | inconclusive [falling, partial curve, poor fit]
CCCCC(CC)CN=C(N)NC(N)=NCCCCCCN=C(N)NC(N)=NCC(CC)CCCC (centres undefined) | inconclusive [falling, partial curve]
CN(C)C(=O)C1(N2CCCCC2)CCN(CC[C@@]2(c3ccc(Cl)c(Cl)c3)CN(C(=O)c3ccccc3)CCO2)CC1 | inconclusive [falling, full curve, poor fit]
CCCCCCCCCCCCCC[P+](CCCC)(CCCC)CCCC (tested in a mixture with another compound) | inconclusive [falling, full curve]
[Cl][Bi]([Cl])([c]1ccccc1)([c]1ccccc1)[c]1ccccc1 | inconclusive [falling, full curve]
C[C@@H](NCCCc1cccc(C(F)(F)F)c1)c1cccc2ccccc12 | inconclusive
CCCCCCCCCCCCCCCCCC[N+](C)(C)C | inconclusive [falling, partial curve]
CC(O)(c1ccc(Cl)cc1)c1ccc(Cl)cc1 | inconclusive [falling, partial curve, poor fit]
